The values below come from US20130184251A1, “HETEROAROMATIC AND AROMATIC PIPERAZINYL AZETIDINYL AMIDES AS MONOACYLGLYCEROL LIPASE INHIBITORS” (Janssen Pharmaceutica, NV, priority 2009, published 2013).

“And” between values parts separate entries of the source, which are not always exact repeats. Identical values can stand only once. Where only a bound is given, the exact number is not on record here.

The target of assay [1] is T1, purified mutant MGL (mut-MGLL 11-313 L179S L186S) (Homo sapiens, UniProt Q99685, L169S/L176S).
T1 sequence (Q99685 1-303 L169S/L176S): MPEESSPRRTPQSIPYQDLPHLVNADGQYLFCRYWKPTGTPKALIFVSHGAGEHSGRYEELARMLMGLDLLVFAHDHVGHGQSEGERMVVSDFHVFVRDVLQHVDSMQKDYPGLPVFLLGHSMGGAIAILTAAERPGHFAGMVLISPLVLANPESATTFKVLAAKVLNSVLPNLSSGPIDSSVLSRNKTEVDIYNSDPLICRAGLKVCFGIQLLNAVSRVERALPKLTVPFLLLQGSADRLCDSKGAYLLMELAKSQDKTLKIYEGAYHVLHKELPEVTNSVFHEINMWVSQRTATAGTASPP
As to the kind of experiment: biochemical. The settings on record: Ex. 3 (mutant) IC50, mutant MGL (mut-MGLL 11-313 L179S L186S).

Assay [2] addresses T1, purified mutant MGL (mut-MGLL 11-313 L179S L186S). Description: biochemical. To be noted: Ex. 4 Kd, ThermoFluor.

In assay [1], `CN(c1ccc(C(=O)N2CC(N3CCN(c4ccccn4)CC3)C2)cc1)C1CCCCC1` [Compound #1, N-Cyclohexyl-N-methyl-4-{[3-(4-pyridin-2-ylpiperazin-1-yl)azetidin-1-yl]carbonyl}aniline] returned a 50% inhibitory concentration (IC50) below 5 nM. This compound displayed a Kd in assay [2] of 10 nM.

In the case of `O=C(c1ccc(N2CCCC2)cc1)N1CC(N2CCN(c3ncccn3)CC2)C1` [Compound #2, 2-(4-{1-[(4-Pyrrolidin-1-ylphenyl)carbonyl]azetidin-3-yl}piperazin-1-yl)pyrimidine], the IC50 in assay [1] was below 5 nM. This compound also came in with a Kd in assay [2] of 3 nM.

For `O=C(c1ccc(-c2ccccc2)cc1)N1CC(N2CCN(c3ncccn3)CC2)C1` [Compound #12, Biphenyl-4-yl-[3-(4-pyrimidin-2-yl-piperazin-1-yl)-azetidin-1-yl]-methanone], in assay [2], the equilibrium dissociation constant (Kd) is 14 nM and 25 nM.

The compound `O=C(c1ccc(C2CCCCC2)cc1)N1CC(N2CCN(c3ncccn3)CC2)C1` [Compound #13, 2-(4-{1-[(4-Cyclohexylphenyl)carbonyl]azetidin-3-yl}piperazin-1-yl)pyrimidine] registered a 50% inhibitory concentration (IC50) in assay [1] below 13 nM. Besides, in assay [2], the Kd was 10 nM.

In assay [1], `O=C(c1ccc(Oc2ccccc2)cc1)N1CC(N2CCN(c3ncccn3)CC2)C1` [Compound #20, 2-(4-{1-[(4-Phenoxyphenyl)carbonyl]azetidin-3-yl}piperazin-1-yl)pyrimidine] yielded a concentration for half-maximal inhibition (IC50) of 23 nM. This compound returned a Kd in assay [2] of 62 nM.

On to `N#Cc1cccnc1N1CCN(C2CN(C(=O)c3ccc(C4CCCCC4)cc3)C2)CC1` [Compound #21, 2-(4-{1-[(4-Cyclohexylphenyl)carbonyl]azetidin-3-yl}piperazin-1-yl)pyridine-3-carbonitrile], for which the IC50 in assay [1] was 24 nM. In assay [2], this compound returned a Kd of 25 nM.

Take `O=C(c1ccc(NCc2ccc(I)o2)cc1)N1CC(N2CCN(c3ncccn3)CC2)C1` [Compound #22, N-[(5-Iodofuran-2-yl)methyl]-4-{[3-(4-pyrimidin-2-ylpiperazin-1-yl)azetidin-1-yl]carbonyl} aniline]: in assay [1], the midpoint of inhibition, the IC50, lay at 26 nM. Moreover, in assay [2], the affinity, expressed as Kd, was 17 nM.

Turning to `O=C(c1cc2ccc(C(F)(F)F)cc2s1)N1CC(N2CCN(c3ncccn3)CC2)C1` [Compound #139, (6-Trifluoromethyl-benzo[b]thien-2-yl)-[3-(4-pyrimidin-2-yl-piperazin-1-yl)-azetidin-1-yl]-methanone], binding in assay [2] was characterised by a dissociation constant (Kd) of 25 nM.

Regarding `O=C(c1ccc(N2CCCCCC2)cc1)N1CC(N2CCN(c3ccccn3)CC2)C1` [compound 3, 1-(4-{[3-(4-Pyridin-2-ylpiperazin-1-yl)azetidin-1-yl]carbonyl}phenyl)azepane], the half-maximal inhibitory concentration (IC50) in assay [1] was below 5 nM. Binding in assay [2] was put at a Kd of 8 nM.

For `O=C(c1ccc(-c2cccc(C(F)(F)F)c2)cc1)N1CC(N2CCN(c3ncccn3)CC2)C1` [compound 4, 2-[4-(1-{[3′-(Trifluoromethyl)biphenyl-4-yl]carbonyl}azetidin-3-yl)piperazin-1-yl]pyrimidine], half-maximal inhibition in assay [1] (IC50) was put at 6 nM. In addition, in assay [2], binding was put at a Kd of 2 nM.

In the case of `COc1ccc(-c2ccc(C(=O)N3CC(N4CCN(c5ncccn5)CC4)C3)cc2)cc1` [compound 5, 2-(4-{1-[(4′-Methoxybiphenyl-4-yl)carbonyl]azetidin-3-yl}piperazin-1-yl)pyrimidine], half-maximal inhibition in assay [1] (IC50) was put at 7 nM. In addition, the affinity in assay [2], expressed as Kd, was 50 nM.

The compound `O=C(c1ccc(C2CCCCC2)cc1)N1CC(N2CCN(c3nccs3)CC2)C1` [compound 6, 1-{1-[(4-Cyclohexylphenyl)carbonyl]azetidin-3-yl}-4-(1,3-thiazol-2-yl)piperazine] showed a concentration for half-maximal inhibition (IC50) in assay [1] of 8 nM. In assay [2], this compound registered a Kd of 14 nM.

`O=C(c1ccc(NCc2ccccc2I)cc1)N1CC(N2CCN(c3ncccn3)CC2)C1` [compound 7, N-(2-Iodobenzyl)-4-{[3-(4-pyrimidin-2-ylpiperazin-1-yl)azetidin-1-yl]carbonyl}aniline] came in with a 50% inhibitory concentration (IC50) in assay [1] of 9 nM. Besides, the dissociation constant Kd in assay [2] stood at 2 nM.

In turn, `O=C(c1ccc(-c2ccccc2Cl)cc1)N1CC(N2CCN(c3ncccn3)CC2)C1` [compound 8, 2-(4-{1-[(2′-Chlorobiphenyl-4-yl)carbonyl]azetidin-3-yl}piperazin-1-yl)pyrimidine] returned an IC50 in assay [1] of 9 nM. The compound further registered a Kd in assay [2] of 18 nM.

Turning to `O=C(c1ccc(-c2ccc(F)cc2)cc1)N1CC(N2CCN(c3ncccn3)CC2)C1` [compound 9, 2-(4-{1-[(4′-Fluorobiphenyl-4-yl)carbonyl]azetidin-3-yl}piperazin-1-yl)pyrimidine], the 50% inhibitory concentration (IC50) in assay [1] amounted to 9 nM. Also, binding in assay [2] was characterised by a dissociation constant (Kd) of 8 nM.

On to `O=C(c1ccc(-c2ccc(Cl)c(Cl)c2)cc1)N1CC(N2CCN(c3ncccn3)CC2)C1` [compound 11, 2-(4-{1-[(3′,4′-Dichlorobiphenyl-4-yl)carbonyl]azetidin-3-yl}piperazin-1-yl)pyrimidine], for which half-maximal inhibition in assay [1] (IC50) was put at 12 nM. Moreover, binding in assay [2] was characterised by a dissociation constant (Kd) of 4 nM.

In the case of `Cc1nc2cc(C(=O)N3CC(N4CCN(c5ncccn5)CC4)C3)ccc2n1-c1ccccc1` [compound 14, 2-Methyl-1-phenyl-5-{[3-(4-pyrimidin-2-ylpiperazin-1-yl)azetidin-1-yl]carbonyl}-1H-benzimidazole], 16 nM corresponded to half-maximal inhibition in assay [1] (IC50). The same compound had a Kd in assay [2] of 12 nM.

For `O=C(c1ccc(C2CCCCC2)cc1)N1CC(N2CCN(c3ccccn3)CC2)C1` [compound 15, 1-{1-[(4-Cyclohexylphenyl)carbonyl]azetidin-3-yl}-4-pyridin-2-ylpiperazine], the IC50 in assay [1] amounted to 18 nM. In assay [2], this compound came in with a dissociation constant Kd of 92 nM.

Regarding `CC(C)n1c(C(F)(F)F)nc2cc(C(=O)N3CC(N4CCN(c5ncccn5)CC4)C3)ccc21` [compound 16, 1-(1-Methylethyl)-5-{[3-(4-pyrimidin-2-ylpiperazin-1-yl)azetidin-1-yl]carbonyl}-2-(trifluoromethyl)-1H-benzimidazole], the IC50 in assay [1] turned out to be 19 nM. Also, the Kd in assay [2] worked out at 21 nM.

In assay [1], `Cc1nc2cc(C(=O)N3CC(N4CCN(c5ncccn5)CC4)C3)ccc2n1C1CCCCC1` [compound 17, 1-Cyclohexyl-2-methyl-5-{[3-(4-pyrimidin-2-ylpiperazin-1-yl)azetidin-1-yl]carbonyl}-1H-benzimidazole] came in with an IC50 of 19 nM. Besides, the Kd in assay [2] came out at 7 nM.

Compound `CN(c1ccccc1)c1ccc(C(=O)N2CC(N3CCN(c4ccccn4)CC3)C2)cc1` [compound 18, N-Methyl-N-phenyl-4-{[3-(4-pyridin-2-ylpiperazin-1-yl)azetidin-1-yl]carbonyl}aniline] yielded an IC50 in assay [1] of 21 nM. Moreover, binding in assay [2] was put at a Kd of 38 nM.

`O=C(c1ccc(-c2ccc(I)cc2)cc1)N1CC(N2CCN(c3ncccn3)CC2)C1` [compound 19, 2-(4-{1-[(4′-Iodobiphenyl-4-yl)carbonyl]azetidin-3-yl}piperazin-1-yl)pyrimidine] showed a half-maximal inhibitory concentration (IC50) in assay [1] of 22 nM. The Kd in assay [2] was determined as 18 nM.

`CCCCCC12CCC(C(=O)N3CC(N4CCN(c5ccccn5)CC4)C3)(CC1)CC2` [compound 128, 1-{1-[(4-Pentylbicyclo[2.2.2]oct-1-yl)carbonyl]azetidin-3-yl}-4-pyridin-2-ylpiperazine] yielded a Kd in assay [2] of 20000 nM.

In assay [2], `O=C(c1ccc(Oc2cc(Cl)cc(Cl)c2)o1)N1CC(N2CCN(c3ccccn3)CC2)C1` [compound 129, 1-(1-{[5-(3,5-Dichlorophenoxy)furan-2-yl]carbonyl}azetidin-3-yl)-4-pyridin-2-ylpiperazine] registered a Kd of 9810 nM.
